# Reference: PubChem BioAssay AID686970 (National Center for Advancing Translational Sciences (NCATS), 2013)
# Out of some 360,000 compounds screened, about 6,000 (1.7%) were called active. Inconclusive means that the source gave no clear call. Such entries were picked first, then a sample of the others. The call rests on the fitted dose curve; in most records, active means well fitted cell-killing curve with a large enough effect; inconclusive means small, poorly fitted or top-dose-only effect, or effect the other way; inactive means flat fitted curve, though single readings scatter. No potency is given beside an inconclusive call; the fits are too rough.
# Assay: qHTS for induction of synthetic lethality in tumor cells producing 2HG: qHTS for the HT-1080-NT fibrosarcoma cell line;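 further: NT is the 2HG producing partner of a matched IDH1 knockdown line; nearly all actives have a fitted effect of over 55% in size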;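 on activity, negative = less viability: 0% = DMSO-treated cells and -100% = media-only wells without cells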
# Conditions: HT-1080-NT fibrosarcoma viability, CellTiter-Glo ATP luminescence, 48 h; activity, negative = less viability: at 46.1 µM (top of the series) unless noted
# In short: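 Viability by CellTiter-Glo luminescence after 48 h compound exposure at 37C of HT-1080-NT cells (750/well, RPMI, 5% FBS). % activity scaled between DMSO wells and medium-only wells, then curve-fitted and categorized by curve class.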
# Potency means the concentration at half of the fitted maximal effect; tags describe the fitted curve by direction and shape.
Compound,Potency,"activity, negative = less viability"
Oc1ccc(CNc2ccccc2F)c2cccnc12,"inconclusive [cytotoxic, single point]",–
CC1OC(CC(=O)O)CC2=C1C(=O)c1c(O)cccc1C2=O (stereo unspecified),active: 1.3 µM,–
COc1ccc(C2SCC(=O)N2CCc2ccc(OC)c(OC)c2)cc1 (stereo unspecified),"inconclusive [cytotoxic, partial curve]",–
CCCc1cc(C(=O)N/N=C/c2ccc(CC)s2)c2ccccc2n1,"inconclusive [cytotoxic, full curve, poor fit]",–
CCCS(=O)(=O)NC(=O)C1(C)CCCN(C(=O)c2nc(C)oc2C)C1 (stereo unspecified),"inconclusive [rising, partial curve]",–
CCO[C@H]1OC(C(=O)N2CCN(Cc3ccc4c(c3)OCO4)CC2)=C[C@@H](c2ccc(Br)cc2)[C@@H]1CCCO,"inconclusive [cytotoxic, single point]",–
Cn1cnc(S(=O)(=O)N2CCCC(c3cc(C(=O)Nc4ccc(F)c(Cl)c4)no3)C2)c1 (stereo unspecified),"inconclusive [cytotoxic, partial curve]",–
CN(C)S(=O)(=O)N(CC(=O)Nc1cccc(F)c1)c1ccccc1,"inconclusive [cytotoxic, single point]",–
COCc1ccc(C(=O)Nc2cccc(S(=O)(=O)N(C)c3ccccc3)c2)cc1,active: 6.51 µM,–
COC(=O)c1cc(COc2ccc3oc(C)c(C(=O)OC)c3c2)c(C)o1,"inconclusive [cytotoxic, single point]",–
CCOC(=O)Cc1nnc2c(Nc3ccc(Cl)cc3)nc3nonc3n12,"inconclusive [cytotoxic, partial curve]",–
CC1=CN2C(=N)/C(=C\c3cn(CCCOc4ccccc4)c4ccccc34)C(=O)N=C2S1,"inconclusive [cytotoxic, partial curve]",–
N#Cc1cc2sc3nnc(-c4ccncc4)n3c2cc1C#N,"inconclusive [cytotoxic, single point]",–
Cc1ccc(NC(=S)Nc2c(C)n(C)n(-c3ccccc3)c2=O)cc1,–,inactive: 14.6%
COc1cccc(C(=O)Nc2cc(C)nn2-c2ccccc2)c1OC,–,inactive: -1.32%
S=C(NCCc1ccccc1)N/N=C/c1cccs1,–,inactive: 0.449%
Cc1cccc(OCCC(=O)NO)c1,"inconclusive [cytotoxic, single point]",–
CC1=C(C(=O)N(C(C)C)C(C)C)CC(CC(=O)NC2CCCC2)C(=O)N1Cc1ccc(C(C)(C)C)cc1 (stereo unspecified),"inconclusive [cytotoxic, single point]",–
COc1ccc2nc3n(c(=O)c2c1)-c1cc2ccccc2cc1C(=O)NC3Cc1ccc(O)cc1 (stereo unspecified),active: 6.51 µM,–
CC(C)Cc1ccc(C(C)C(=O)OCC(=O)c2c[nH]c3ccccc23)cc1 (stereo unspecified),"inconclusive [cytotoxic, single point]",–
CCC(NC(=O)OC(C)(C)C)C(=O)Oc1ccc2c3c(c(=O)oc2c1)CCC3 (stereo unspecified),"inconclusive [rising, partial curve, poor fit]",–
CCOc1cc(/C=N/Nc2nc3ccccc3[nH]2)cc(Br)c1OCC(=O)N(C)C,"inconclusive [cytotoxic, single point]",–
Cc1ccc2c(c1)C1CN(C)CCC1N2Sc1ccccc1[N+](=O)[O-] (stereo unspecified),active: 16.4 µM,–
CC(=O)Nc1ccc(Oc2nc(-c3ccccn3)nc3ccccc23)cc1,–,inactive: -22.7%

Compound,Potency,"activity, negative = less viability"
COc1ccccc1-c1cc(C(=O)N2CCN(c3ccccc3OC)CC2)no1,"inconclusive [cytotoxic, single point]",–
O=C1CSC(=S)N1c1ccc(Cl)c(Cl)c1,"inconclusive [cytotoxic, partial curve]",–
O=C(CC1Sc2ccccc2NC1=O)NCc1ccccc1 (stereo unspecified),–,inactive: 7.58%
COc1ccc(OC)c(C2CC(=O)c3c([nH]c(C(=O)OC(C)C)c3C)C2)c1 (stereo unspecified),active: 5.8 µM,–
CCOC(=O)c1c(-c2cccs2)csc1NC(=O)CN1CC(C)OC(C)C1 (stereo unspecified),–,inconclusive: -30.8% [cytotoxic]
CC(C)Sc1ccc([N+](=O)[O-])cc1C(=O)Nc1ccncc1,–,inactive: -3.55%
O=C(/C=C/c1ccc(OC(F)F)cc1)Nc1cccc(S(=O)(=O)N2CCOCC2)c1,"inconclusive [cytotoxic, partial curve]",–
Cc1cc(O)cc(O)c1/C=N/NC(=O)c1ccc2c(c1)OCCO2,"inconclusive [cytotoxic, partial curve]",–
Cc1sc2ncn(CC(=O)Nc3cccc(S(N)(=O)=O)c3)c(=O)c2c1-c1ccccc1,"inconclusive [cytotoxic, single point]",–
Cc1ccc(NC2=C(Cl)C(=O)OC2OC(C)C)cc1 (stereo unspecified),–,inactive: 0.535%
Cc1ccc(C(C)C)cc1S(=O)(=O)NC1CC(C)(C)NC(C)(C)C1,"inconclusive [cytotoxic, single point]",–
CCCCNS(=O)(=O)c1ccc(NC(=O)c2c(-c3ccccc3Cl)noc2C)cc1,"inconclusive [cytotoxic, single point]",–
C/C(=N\NC(=O)c1ccccc1OCc1ccc(F)cc1)c1ccccn1,"inconclusive [cytotoxic, full curve]",–
CCCC(=O)Nc1c2c(nn1-c1ccc(F)cc1)CS(=O)(=O)C2,–,inactive: -0.601%
COc1ccc(-c2cc(C(F)(F)F)nc(S(=O)(=O)CCCC(=O)Nc3cccnc3Cl)n2)cc1OC,"inconclusive [cytotoxic, single point]",–
Cc1ccc(NC(=O)/C=C/c2ccc3c(c2)OCO3)nc1,–,inconclusive: -15.9% [cytotoxic]
O=c1[nH]c(C2CCN(S(=O)(=O)c3ccc(S(=O)(=O)NC4CC4)cc3)CC2)nc2c1nnn2Cc1cccc(F)c1,"inconclusive [cytotoxic, single point]",–
O=C1CC(Sc2ncccn2)C(=O)N1c1ccccc1 (stereo unspecified),–,inactive: 5.38%
c1ccc(-c2n[nH]nc2-c2ccccc2)cc1,"inconclusive [cytotoxic, single point]",–
COc1cccc(NC(=O)C2(C)CCN2Cc2ccc(OC)c3ccccc23)c1 (stereo unspecified),"inconclusive [cytotoxic, single point]",–
Cn1c(NCc2ccccc2)nc2c1c(=O)n(Cc1ccc(Br)cc1)c(=O)n2C,"inconclusive [cytotoxic, single point]",–
Cc1cc(NC(=O)CSc2nnc(-c3cccc(Cl)c3)o2)no1,"inconclusive [cytotoxic, partial curve, poor fit]",–
CCC(=O)N(c1nnc(SCC(=O)NN2C(=O)NC3(CCCCC3)C2=O)s1)C1CC1,–,inactive: 4.6%
Clc1ccc(Cn2c(/C=C/c3ccco3)nc3ccccc32)cc1,"inconclusive [cytotoxic, single point]",–

Compound,Potency,"activity, negative = less viability"
OCC(CO)c1cnnc2ccccc12,–,inactive: 1.64%
Cc1nc(-c2cccc(NS(C)(=O)=O)c2)cs1,–,inactive: -0.621%
c1ccc(CNc2nc(-c3cccs3)nc3ccccc23)cc1,"inconclusive [cytotoxic, single point]",–
CCN(C(=O)COC(=O)c1ccc(N2C(=O)c3ccccc3C2=O)cc1)C1CCS(=O)(=O)C1 (stereo unspecified),–,inactive: 22.7%
Cc1csc(NC(=O)CCS(=O)(=O)c2ccc(Br)cc2)n1,–,inactive: -1.91%
O=C(NC(c1ccc2c(c1)OCO2)c1ccccn1)C1CCN(CCOc2ccc(Cl)cc2Cl)CC1 (stereo unspecified),"inconclusive [cytotoxic, single point]",–
COc1cc2c(cc1OC)C(c1cccs1)N(C(=O)c1ccncc1)CC2 (stereo unspecified),"inconclusive [cytotoxic, partial curve]",–
CCn1c(N2CCN(C(=S)NC)CC2)nc2ccccc21,–,inactive: 4.9%
CN(C)C(=O)Oc1cccc([N+](C)(C)C)c1,–,inconclusive: 40.5%
COc1ccc(-c2cc(=O)oc3cc(OC(C)C(=O)NC4CC4)ccc23)cc1 (stereo unspecified),–,inactive: 1.94%
Cc1cc(C)c2c(=O)n(CC(=O)NCCCN3CCN(c4ccccc4F)CC3)sc2n1,"inconclusive [cytotoxic, single point]",–
COc1ccc(COCC(O)CN2CCC(CN3C(=O)c4cccc5cccc(c45)C3=O)CC2)cc1OC (stereo unspecified),"inconclusive [cytotoxic, partial curve]",–
COc1ccc(C(CNC(=O)c2ccc(Br)o2)N2CCN(C)CC2)cc1 (stereo unspecified),–,inactive: -9.19%
O=C(/C=C/c1ccc(Cl)cc1Cl)c1ccc[nH]1,"inconclusive [cytotoxic, single point]",–
CCc1nnc(NC(=O)CCC(=O)N2CCN(CCOc3ccc(C)cc3)CC2)s1,–,inactive: -14.7%
COCCCn1c(SCC(=O)Nc2ccc(C(C)=O)cc2)nc2ccccc2c1=O,–,inactive: -0.824%
CCCOP(=O)(OCCC)C(Nc1ccc(C(=O)O)cc1)c1ccccc1 (stereo unspecified),–,inactive: 1.46%
O=C(N/N=C\c1cc(Br)ccc1O)c1ccc(S(=O)(=O)N2CCCCC2)cc1,"inconclusive [cytotoxic, full curve]",–
CCOC(=O)c1ccc(NC(=O)N2CCc3ccccc32)cc1,"inconclusive [cytotoxic, single point]",–
Cc1ccc(NC(=S)c2ccncc2)c(C)c1,–,inactive: 3.64%
CCn1c(COc2ccc(Cl)cc2)nnc1SCc1nc2ccccc2[nH]1,"inconclusive [cytotoxic, single point]",–
CCc1ccc(C(CNc2nc(C(F)(F)F)nc3ccccc23)N(C)C)cc1 (stereo unspecified),active: 23.1 µM,–
CCc1ccccc1NC(=S)NCC1CCN(c2ccc(OC)cc2)C1 (stereo unspecified),"inconclusive [cytotoxic, single point]",–
